# Data: paper PMC5700166
# Only a part is listed here, and it is no random draw. The list includes weakly bound sequences.
# Target: T1, GST-Dm-Relish (UniProt Q94527)
# T1 sequence: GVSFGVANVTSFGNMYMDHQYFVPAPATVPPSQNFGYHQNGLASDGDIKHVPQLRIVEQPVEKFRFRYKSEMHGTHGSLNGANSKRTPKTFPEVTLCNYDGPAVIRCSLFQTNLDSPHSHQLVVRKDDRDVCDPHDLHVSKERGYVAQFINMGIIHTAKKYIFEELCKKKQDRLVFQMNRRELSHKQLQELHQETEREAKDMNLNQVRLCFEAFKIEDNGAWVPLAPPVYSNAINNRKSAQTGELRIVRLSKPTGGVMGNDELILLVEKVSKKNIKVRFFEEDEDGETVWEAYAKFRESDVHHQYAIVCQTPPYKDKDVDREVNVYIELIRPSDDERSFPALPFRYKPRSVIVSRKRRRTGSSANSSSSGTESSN
# Experiment: protein-binding microarray (PBM)
# Settings: PBM: ~300 nM protein, 6 mM HEPES pH 7.8, 80 mM KCl, 0.5 mM EDTA, 0.5 mM EGTA, 6% glycerol, 35 ng/ul poly-dIdC, 1% milk, 1 h, room temperature; Ap Aiptasia and Nv Nematostella (sea anemones) / Co Capsaspora / Aq Amphimedon (sponge) / Dm Drosophila / Hu human; RHD is the Rel homology domain; high values mean tight binding; most listed sequences are background and not binding sites; double strand, one strand shown
row,Sequence,binding signal [z-score]
1,CCGATTAACATCAAGCATCCCCCTGATGTTAATCGGGTCTTGATTCGCTTGACGCTGCTG,3.89
2,CCGATTAACATCAAAAATTACCCTGATGTTAATCGGGTCTTGATTCGCTTGACGCTGCTG,6.42
3,CCGATTAACATCAGGACATCCCCTGATGTTAATCGGGTCTTGATTCGCTTGACGCTGCTG,8.74
4,CCGATTAACATCAGGGGATTAACTGATGTTAATCGGGTCTTGATTCGCTTGACGCTGCTG,8.54
5,CCGATTAACATCAATTTCCCGCCTGATGTTAATCGGGTCTTGATTCGCTTGACGCTGCTG,1.31
6,CCGATTAACATCAGGAACACCCCTGATGTTAATCGGGTCTTGATTCGCTTGACGCTGCTG,3.5
7,CCGATTAACATCACTATATCCCCTGATGTTAATCGGGTCTTGATTCGCTTGACGCTGCTG,2.01
8,CCGATTAACATCAAACAGGGAAATGATGTTAATCGGGTCTTGATTCGCTTGACGCTGCTG,0.683
9,CCGATTAACATCAAACTCCCCCTTGATGTTAATCGGGTCTTGATTCGCTTGACGCTGCTG,6.54
10,CCGATTAACATCAGGGGAATCACTGATGTTAATCGGGTCTTGATTCGCTTGACGCTGCTG,10.6
11,CCGATTAACATCACTTTCCCAAATGATGTTAATCGGGTCTTGATTCGCTTGACGCTGCTG,0.916
12,CCGATTAACATCAATAAAATCCCTGATGTTAATCGGGTCTTGATTCGCTTGACGCTGCTG,6.47
13,CCGATTAACATCAGAACATTCCCTGATGTTAATCGGGTCTTGATTCGCTTGACGCTGCTG,1.97
14,CCGATTAACATCAGGATGCCCCCTGATGTTAATCGGGTCTTGATTCGCTTGACGCTGCTG,4.63
15,CCGATTAACATCAAGCGTTTCCCTGATGTTAATCGGGTCTTGATTCGCTTGACGCTGCTG,0.746
16,CCGATTAACATCAAATTTCCCGCTGATGTTAATCGGGTCTTGATTCGCTTGACGCTGCTG,2.88
17,CCGATTAACATCAAATGTGGGAATGATGTTAATCGGGTCTTGATTCGCTTGACGCTGCTG,0.702
18,CCGATTAACATCACAAACGGGGCTGATGTTAATCGGGTCTTGATTCGCTTGACGCTGCTG,1.33
19,CCGATTAACATCACCGCTTCCCTTGATGTTAATCGGGTCTTGATTCGCTTGACGCTGCTG,0.753

row,Sequence,binding signal [z-score]
1,CCGATTAACATCAGGGGGAAGCATGATGTTAATCGGGTCTTGATTCGCTTGACGCTGCTG,3.21
2,CCGATTAACATCAGGGAACACCCTGATGTTAATCGGGTCTTGATTCGCTTGACGCTGCTG,8.18
3,CCGATTAACATCAAATTTACCCCTGATGTTAATCGGGTCTTGATTCGCTTGACGCTGCTG,3.85
4,CCGATTAACATCAGCTTCCCCCCTGATGTTAATCGGGTCTTGATTCGCTTGACGCTGCTG,4.2
5,CCGATTAACATCAGGGCTCCCCATGATGTTAATCGGGTCTTGATTCGCTTGACGCTGCTG,3.88
6,CCGATTAACATCATCCTGGGAAATGATGTTAATCGGGTCTTGATTCGCTTGACGCTGCTG,0.513
7,CCGATTAACATCAGGGGCAGGGATGATGTTAATCGGGTCTTGATTCGCTTGACGCTGCTG,0.803
8,CCGATTAACATCAGGGAAAAGAATGATGTTAATCGGGTCTTGATTCGCTTGACGCTGCTG,0.818
9,CCGATTAACATCAAGGAACTCCCTGATGTTAATCGGGTCTTGATTCGCTTGACGCTGCTG,5.06
10,CCGATTAACATCAAGGAATTCCCTGATGTTAATCGGGTCTTGATTCGCTTGACGCTGCTG,8.03
11,CCGATTAACATCATCAGTTTCCCTGATGTTAATCGGGTCTTGATTCGCTTGACGCTGCTG,-0.0647
12,CCGATTAACATCAAATTTCCCAATGATGTTAATCGGGTCTTGATTCGCTTGACGCTGCTG,2.51
13,CCGATTAACATCAAACTACCCCCTGATGTTAATCGGGTCTTGATTCGCTTGACGCTGCTG,2.49
14,CCGATTAACATCATACAAGGGAGTGATGTTAATCGGGTCTTGATTCGCTTGACGCTGCTG,-0.038
15,CCGATTAACATCACAATTCCCCCTGATGTTAATCGGGTCTTGATTCGCTTGACGCTGCTG,5.44
16,CCGATTAACATCAGGGTTTTTTATGATGTTAATCGGGTCTTGATTCGCTTGACGCTGCTG,5.89
17,CCGATTAACATCAGGGGATAACCTGATGTTAATCGGGTCTTGATTCGCTTGACGCTGCTG,7.51
18,CCGATTAACATCAAATAGCCCCCTGATGTTAATCGGGTCTTGATTCGCTTGACGCTGCTG,4.26
